Patent US12551573B2, “Compositions and methods for the targeting of PCSK9” (Scribe Therapeutics Inc., priority 2022, dated 2026)

B1: DOMAIN_21367 (protein, listed as Equus caballus)
chain: SQGSVTFGDVAIDFSREEWEWLQPAQRDLYRIVMLENYGHLVSLGLNVSKPDVVSLLEQGKEPWLGNGDVRRDLFSVSESN
B2: DOMAIN_21658 (protein, listed as Monodelphis domestica)
chain: SQEVVTFQDVAVNFTREEWRLLSPPQKELYREVMLENARNLLSVGLPASIEDVISNVEQREALWMLEREGLRSCCPEEDIR
B3: DOMAIN_21588 (protein, listed as Callorhinus ursinus)
chain: PQESVTFKDIAVDFTQEEWALLDTSQRKLYRDVMLENISHLVSVGYHLCKSDVISQLEQGVELWREGRGFPQGPNPDRKSG
B4: DOMAIN_21110 (protein)
chain: SKVPVTFGDLAIYFSQEEWEWLHPAQRDLYRHVMLENYGHLVSLGLNISKPYVVSLLEQGRDPWLDNRDVRRDLFSESKGE
modifications: Neovison vison
B5: DOMAIN_21823 (protein, listed as Equus caballus)
chain: QAELTFEDVAVFLSQEEWGRLDPAQRGLYRDVMLETYRNLVSLGAGPAGPKPGVITQLERGDEPWVLDTQGVEGRERQKVD
B6: DOMAIN_21334 (protein, listed as Equus caballus)
chain: TSAPVTFGDLAIYFSQEEWEWLSPVQKALYEDVMLENYQTLASLGLSFRRPNVITLLEKGKAPWMVEPVRRRRGLDSGSKC
B7: DOMAIN_21197 (protein, listed as Tursiops truncatus)
chain: TQVSVTFDDVAVTFTQEEWRQLDPAQRTLYQEVMLENCRLLVSLGCPVPRLELIFQLEQGQKLWTVKKDLSRSTCPGKRCR
B8: DOMAIN_21161 (protein, listed as Sarcophilus harrisii)
chain: PQECVTFKDVAVNFTQEEWQQLNPAQRDLYREVMLENYRNLISLGLPVSKPDVIFQLEQGEEPWMLDLQRIEEGEISRNMY
B9: DOMAIN_21023 (protein, listed as Sarcophilus harrisii)
chain: SQIPLTFQDVAVDFTWEEWGLLEPSQKDMYWDVMLEIYENFISLGGVPLSIPDVISQLERMEAPWMTQGGVLISTFLDSST
B10: DOMAIN_21067 (protein, listed as Zalophus californianus)
chain: SQGLVTFRDVALDFSQEEWEWLDQSQKDLYRDVMLENYRNLVWLGLSISKPNMISLLEQGKEPWMVEKEMSDGQCADWDSW
B11: DOMAIN_21632 (protein, listed as Monodelphis domestica)
chain: SQELVTFEDVAIYFTEEEWGLLDPAQRKLYRDVMLENFGNVLLLGFPVSKPDIISKLERGEIPCVPFLPRKKILVIRLGGG
B12: DOMAIN_389 (protein, listed as Pan paniscus)
chain: MAEGLKFKDVVIYFSQKEWECLHSAQKDLYRDVMLENYGNLVLLGLSDTKPNVISLLEQKKEPWMVKRKETKEWCPDWEFG
B13: DOMAIN_21276 (protein, listed as Mandrillus leucophaeus)
chain: FEELVTFEDVFVDFSPEELSSLSAAQRNLYREVMLENYRNLVSLGYQFSKPDIISRLEAEESRAMEKDSRHTVICQGEAHD
B14: DOMAIN_21175 (protein, listed as Callorhinus ursinus)
chain: SQEPVTFEDVAVYFTQNQWASLDPMQRALYLEVMLENYANITSLALPFPKPDLILQLEQGEAPWGLDPWTPLDGEALGGVH
B15: DOMAIN_21333 (protein, listed as Zalophus californianus)
chain: SQEPVTFEDVAVYFTQNQWASLDPMQRALYLEVMLENYANITSLALPFPKPDLILQLEQGGAPWGLDPWTPLEGEALGGVH
B16: DOMAIN_21421 (protein, listed as Pteropus vampyrus)
chain: EMDSVTFEDVAVNFTSEEWALLDPSQKKLYRAVMRETFRNLASIGLNLGKKWEDHNIEDRYKTHGKKLRSHMVEKLHESKE
B17: DOMAIN_21626 (protein, listed as Monodelphis domestica)
chain: FQESVTFRDVAVDFTQEEWRHLEPAQRALYRDVMLENYENLVSVGIPVSRLDVTSLLERQEAVWKDGGLRDSCLDSLSNKI
B18: DOMAIN_21133 (protein, listed as Suricata suricatta)
chain: AQESVTFRDVAVVFSRDEWLCLDPAQRSLYREVMLENYGTLVSLGILFSKPKVIFQLQQGEDPWMVESGVSQGPCVGWESM
B19: DOMAIN_21312 (protein)
chain: QAEVTFEDVAVLLSREEWGRLGPVQKGLYRDVMLETYRNLVSLGAGPAGPKPEVITQLERGDEPWVPDVQGREQPTIDGSA
modifications: Lipotes vexillifer
B20: DOMAIN_21786 (protein, listed as Trichechus manatus)
chain: AQEFVMFRDVAVFFSQEEWGHLDPAQRALYREVMLENYSNLVSLGIRFSKPKVISQLQQGEDPWMVDRGVPQGACQGWKSL
B21: DOMAIN_21335 (protein, listed as Equus caballus)
chain: RQEPVTFEDVAVYFTQNEWVILDPAQRALYREVMLENYANVASLAFSFTRPVLVSQLERGELPPGLDPWERASPEALRGIC
B22: DOMAIN_382 (protein, listed as Pan paniscus)
chain: MAHLMMFRDVAVDFSQEEWECLDLEQRGLYRDVMLENYSNMVSLGLCIYQPEAFSLLEKGKEPWKILRDETRGPCPDMQSR
B23: DOMAIN_21822 (protein, listed as Equus caballus)
chain: FQGSVMFSDVSIDFSQEEWEYLDLEQRALYRDVMLENYSNLVSLGCFISKPDVISLLEQGKEPWKVVRKGKRRYPDLETRY
B24: DOMAIN_21371 (protein, listed as Physeter macrocephalus)
chain: QPQEAVTFKDVEVTFSQDEWGWLDASQRNLYRDVMLENYGNVASLVGPFTKPALISWLEAREPWGLNVQGAHPKGSPSAAP
B25: DOMAIN_21086 (protein, listed as Pteropus vampyrus)
chain: FQGSVMFRDVSINFSQEEWECLDPGQMNLYKEVMLENFSNLVSVGLSSAKPVVISLLEEGKEPWMVEREVKRGLCSDLESM
B26: DOMAIN_21226 (protein, listed as Sarcophilus harrisii)
chain: PQGPVTFQDVAVVFTQEEWRYLDPSQKELYRDVMLENYRNLLYLGLVVSKPNVIYRFEQGEASWRPDQRDSGSTCSDEETG
B27: DOMAIN_20998 (protein, listed as Pan paniscus)
chain: SPGLLTFRDVVIEFSLEEWQCLDHAQQNLYRDVMLENYRNLVSLGIAVSKPDLITCLEQNKDPWNIKRNEMVTKHPVMCSH
B28: DOMAIN_21010 (protein, listed as Equus caballus)
chain: MIESQISFEDVAVDFTLEEWQLLNPTQKNLYRDVMLENYSNLAFLGYQIIKPDAVFQLEQEEQWITDEEILNHSCPEEVWL
B29: DOMAIN_21494 (protein, listed as Tursiops truncatus)
chain: MDSVTIEDVAVDFTLEEWALLGPSQRKLYRDVMQETLRNLAAVGAKREYHAIEDQYKNQGRKLRTFMVERFCKSKDISLCG
B30: DOMAIN_21481 (protein, listed as Pan paniscus)
chain: LRGLVTFEDVAVEFTQEEWALLDPAQRTLYRDVMLENCRNLASLGCRVNKPSLISQLEQDKKVITEERGILPSTCPDLETL
B31: DOMAIN_21260 (protein, listed as Pteropus vampyrus)
chain: MEPVTFEDVAVYFTQNQWASLDPVQRALYREVMLENYANVASLAFPFPKPVLISQLEQGEAPWGPDPGEAEVLKGIWPGGE
B32: DOMAIN_21612 (protein, listed as Aotus trivirgatus)
chain: ESVAFEDVAVYFTQNQWASLDPAQRALYREVMLENYANVASLVAFPFPKPALISHLEKGEAPWGPDPWDAEIPSSLSQGDE
B33: DOMAIN_418 (protein, listed as Pan paniscus)
chain: MIEYQIPVSFKDVVVGFTQEEWHQLSPAQRALYRDVMLETYSNLVSVGYEGTKPDVILRLEQEEAPWIGEAACPGCHCWED
B34: DOMAIN_407 (protein, listed as Pan paniscus)
chain: TCMVHRQTMSCSGAGGITAFVAFRDVAVDFTQEEWRLLSPAQRTLHREVMLETYNHLVSLEIPSSKPKLIAQLERGEEPWR
B35: DOMAIN_21369 (protein, listed as Equus caballus)
chain: AQESLTFDDVAVEFTWEEWQLLAPAQKDLYRDVMLENYSNLVSVGYQASKPDALSKLVQGEPPWTMEDEIHCRTHSEIWEV
B36: DOMAIN_21123 (protein, listed as Callorhinus ursinus)
chain: FQESVTFEDVAVYFSENEWTGLAPAQRVLYRDVMLENYGAVASLAAFPFPKPALISQLERGEAPWCKAPQGALDGEGPRGV
B37: DOMAIN_21082 (protein, listed as Loxodonta africana)
chain: KPGVVRFVDVAVYFSPEEWACLRPAQRALYRDVMRETYGHLGALGFPGPKPALISWMEQENEAWSPAAQDPEERENLGGVP
B38: DOMAIN_21162 (protein, listed as Sarcophilus harrisii)
chain: LQESVTFSDVAVDFTLEEWGCLCPPQKEMYREVMLENYGNLVCLGLAMSKPDVISRLERGEAPRSPGGDLGSADWGTESGA

Test system: HBEGF locus
Type: cell-based, human
Details: high-throughput screen of dXR repression of the HBEGF gene
[1] = abundance of each domain in the library before vs after diphtheria toxin selection, listed domains met p-value <0.01 and log2(fold change) >2
[2] = change in abundance of each domain in the library before and after diphtheria toxin selection

Row | Molecule | Log2 (fold change) [1] | Log2 (fold change) [2]
1 | B1 | 2.9921 | 
2 | B2 | 3.1325 | 
3 | B3 | 3.4914 | 
4 | B4 | 2.499 | 
5 | B5 | 3.2474 | 
6 | B6 | 2.9508 | 
7 | B7 | 2.214 | 
8 | B8 | 3.2208 | 
9 | B9 | 3.1196 | 
10 | B10 | 3.0246 | 
11 | B11 | 2.6551 | 
12 | B12 |  | 3.011
13 | B13 | 3.0178 | 
14 | B14 | 3.3334 | 
15 | B15 | 3.5801 | 
16 | B16 | 2.7713 | 
17 | B17 | 3.5419 | 
18 | B18 | 3.1021 | 
19 | B19 | 3.5287 | 

Row | Molecule | Log2 (fold change) [1] | Log2 (fold change) [2]
20 | B20 | 3.2249 | 
21 | B21 | 2.518 | 
22 | B22 |  | 3.1625
23 | B23 | 3.5647 | 
24 | B24 | 3.8804 | 
25 | B25 | 2.1339 | 
26 | B26 | 2.6942 | 
27 | B27 | 2.6659 | 
28 | B28 | 2.2253 | 
29 | B29 | 3.783 | 
30 | B30 | 2.7056 | 
31 | B31 | 3.1806 | 
32 | B32 | 3.2931 | 
33 | B33 |  | 3.2429
34 | B34 |  | 3.8312
35 | B35 | 2.7947 | 
36 | B36 | 3.237 | 
37 | B37 | 3.2032 | 
38 | B38 | 2.885 | 

Where two headings read alike, the source gives them in different places.
